PubChem BioAssay AID504444 (National Center for Advancing Translational Sciences (NCATS), 2011)
In all, about 360,000 compounds went through this assay and about 7,500 (2.1%) were called active. About 20% were inconclusive and are not listed. Calls follow the shape of the dose curve; as a rule, active = well fitted inhibition curve with a large enough effect; inconclusive = small, poorly fitted or top-dose-only effect, or effect the other way; inactive = flat fitted curve, though single readings scatter. Only a part is listed here, and it is no random draw.

Assay: Nrf2 qHTS screen for inhibitors; also: nearly all actives have a fitted effect of over 60% in size
Conditions: A549 ARE-Fluc reporter, luciferase luminescence, 18-24 h; series mostly up to 46 µM; activity change, negative = inhibition: at the top concentration
Summary of the method: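 Reporter: ARE-Fluc in A549. Exposure: 18-24 h, 37 °C, 5% CO2, 5% FBS OPTI-MEM. Readouts: fluorescent cytotoxicity (CellTiter-Fluor), then luminescent Nrf2 signal after BugLite.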
% is scaled to controls: 0 for no effect and ±100 for the full control effect; potency is read from the fitted curve at half-maximal effect.

Compound | activity change, negative = inhibition | Potency
O=C1N[C@H](Cc2ccccc2)COC(=O)[C@H](Cc2ccc(F)cc2)C/C=C\C[C@H]1CC(=O)N(CCO)Cc1ccccc1 | inactive: -8.45% | 
COC(=O)c1cc(NC(=O)Cn2nc(C)n3cccc3c2=O)cc(C(=O)OC)c1 | inactive: 12.8% | 
COc1ccccc1N1CCN(S(=O)(=O)c2cc3[nH]c(=O)c(=O)[nH]c3cc2C)CC1 | inactive: 3.2% | 
CCn1c(COc2c(C)cccc2C)nnc1SCC(=O)N1CCN(c2ccccc2)CC1 |  | active: 18.4 µM
CC(C)CC(=O)Nc1ccc(C(=O)NNC(=S)NC(=O)C2CCCCC2)cc1 |  | active: 8.2 µM
COc1cc(/C=N/NC(=O)c2ccncc2)ccc1O | inactive: -0.595% | 
COC(C[C@@H]1O[C@@H]1[C@@H](O)[C@@H](C)OCc1ccccc1)OC | inactive: -4.43% | 
CC(C)(C)S(=O)N1Cc2cc(=O)n(Cc3ccccc3)cc2[C@@H]1CCO (stereo not given in full) | inactive: 22.5% | 
Oc1ccc(C[C@@H]2CNCCN2CCc2cccc(F)c2)cc1 | inactive: -11.1% | 
COc1ccc(C2=CC(=O)C[C@H](c3ccc(OC)cc3)C2)cc1 | inactive: 7.05% | 
COc1cc(OC)cc(C(=O)Nc2ccc3c(c2)OCCO3)c1 | inactive: 12% | 
C=CC[C@@H](CC(=O)N[C@@H](CO)Cc1ccccc1)C(=O)N[C@H](C)COC(=O)[C@@H](CC=C)Cc1ccc(F)cc1 | inactive: 6.96% | 
CCc1ccc(NC(=O)c2c(C(=O)Nc3ccccc3)sc3nc(C)cc(=O)n23)cc1 | inactive: 4% | 
CC(=O)N1c2ccc(S(=O)(=O)N3CCC(C(=O)Nc4ccccn4)CC3)cc2CC1C (stereo not given) |  | active: 18.4 µM
COc1cc(NS(=O)(=O)c2ccc(C)cc2)c2ncccc2c1 | inactive: -46.7% | 
CCOC(=O)c1nc(Nc2ccc(C(=O)OC)cc2)c2ccccc2n1 | inactive: -0.806% | 
COCCNC(=O)c1cccc(Nc2nc(-c3ccccc3)c3cc(Cl)ccc3n2)c1 |  | active: 14.6 µM
COc1cc(NC(=O)NCC2CCN(Cc3ccc(C)cc3)CC2)cc(OC)c1OC | inactive: 1.77% | 
C=CC[C@@H](CC(=O)N[C@@H](CO)Cc1ccccc1)C(=O)N[C@H](COC(=O)[C@@H](CC=C)Cc1ccc(F)cc1)Cc1c[nH]c2ccccc12 | inactive: 8.98% | 
COc1cccc(NC(=O)c2sc3nc4n(c(=O)c3c2C)CCC4)c1 | inactive: 15.2% | 
Cc1cccc(NC(=O)Nc2ccc(Br)cc2)n1 | inactive: 6.74% | 
CCc1cccc(C)c1NC(=O)C1CCN(c2nn3c(=O)cc(C)nc3s2)CC1 | inactive: 2.73% | 
Nc1nc(Cl)cc(N2CCC(c3cc(-c4ccc(Cl)cc4Cl)n[nH]3)CC2)n1 |  | active: 10.3 µM

Compound | activity change, negative = inhibition | Potency
COc1cc2c(cc1OC)C(C)N(C(=O)C(NC(=O)c1ccccc1)C(C)C)CC2 (stereo not given) | inactive: -25.2% | 
O=C(CSc1ncn[nH]1)N1N=C2/C(=C\c3ccco3)CCCC2C1c1ccco1 (stereo not given) | inactive: -18.4% | 
CC(C)(C)OC(=O)C[C@H]1C/C=C\C[C@@H](CC(=O)N(CCO)Cc2ccccc2)C(=O)NC[C@H](c2ccccc2)OC1=O | inactive: 11.7% | 
Cc1nn(CCC(=O)NCc2ccc(N(C)C)cc2)c(=O)c2nn(-c3ccccc3)c(C)c12 | inactive: 11.5% | 
C[C@H]1NC(=O)[C@@]2(C)[C@H](c3ccccc3)[C@H]3COc4ccccc4[C@@H]3N2C1=O | inactive: 4.98% | 
COc1cc(NC(=O)c2cc3ccccc3cc2OC)ccc1NC(=O)c1cccs1 |  | active: 5.17 µM
Cc1cccc(NS(=O)(=O)c2nnc(NC(=O)C3CCCCC3)s2)c1 | inactive: -22.1% | 
COc1cc(-c2nnn(CC(=O)NCc3ccccc3)n2)cc(OC)c1OC | inactive: -5.67% | 
CCN(C(=O)C1CCN(c2nc(-c3ccc(OC)cc3)no2)CC1)c1ccc(OC)cc1 |  | active: 13 µM
N=C(N)SCc1nc2ccccc2c(=O)n1-c1ccccc1 | inactive: 12.8% | 
N#CC(c1ccc(F)cc1)c1ccc(C(=O)c2ccc(F)cc2)cc1 (stereo not given) |  | active: 14.6 µM
Cc1c(N2C(=O)/C(=C/c3cccc4ccccc34)SC2=S)c(=O)n(-c2ccccc2)n1C | inactive: -0.176% | 
CC1=C(C(=O)OCc2ccccc2)C(c2cccnc2)c2c(n(C)c(=O)n(C)c2=O)N1 (stereo not given) | inactive: -11.1% | 
C=CC[C@@H](CC(=O)N[C@@H](CO)Cc1ccccc1)C(=O)N[C@@H](COC(=O)[C@@H](CC=C)Cc1ccc(F)cc1)Cc1c[nH]c2ccccc12 | inactive: 0.809% | 
COc1ccccc1CNC(=O)C(=O)NCC(c1cccnc1)N1CCN(c2ccc(F)cc2)CC1 (stereo not given) |  | active: 20.6 µM
Cc1ccc(NC(=O)CNc2cccc(Br)c2)cc1S(=O)(=O)N1CCOCC1 |  | active: 20.6 µM
CCC1CSC(Nc2ccc(C(=O)/C=C/c3cccc(C)c3)cc2)=N1 (stereo not given) |  | active: 23.1 µM
C=C1CCN(C(C)C(=O)OCc2ccc(C)cc2)S(=O)(=O)c2ccccc21 (stereo not given) | inactive: 10.9% | 
O=C(C[C@H]1C/C=C\CC[C@@H](Cc2ccc(F)cc2)C(=O)OC[C@H]2CCCN2C1=O)N[C@@H](CO)Cc1ccccc1 | inactive: -18% | 
O=C(Cn1c(COc2ccccc2)nc2ccccc21)Nc1cc(Cl)ccc1Cl |  | active: 18.4 µM
Cc1ccc(C(=O)NCCSc2ccc(Cl)cc2)cc1S(=O)(=O)Nc1ccccc1 |  | active: 14.6 µM
Cc1cc(C)c2nc(NNC(=O)c3ccc(S(=O)(=O)N4CCCC(C)C4)cc3)sc2c1 (stereo not given) |  | active: 4.11 µM
CN(C)c1ccc(CNS(=O)(=O)c2csc(C(N)=O)c2)cc1 | inactive: -15.2% | 

Compound | activity change, negative = inhibition | Potency
Nc1ccc(N2CCN(C(=O)c3ccco3)CC2)cc1 | inactive: 0.651% | 
CN(c1ccc(Cl)cc1)S(=O)(=O)c1nnc(NC(=O)c2ccco2)s1 | inactive: 1.69% | 
CCOc1ccccc1NC(=O)CCS(=O)(=O)c1ccc(OC)cc1 | inactive: -3.78% | 
CCCn1c2ccc(C)cc2c2nnc(SCCN3CCCCC3)nc21 | inactive: 11.2% | 
CC(C)N(C(=O)CSc1nc(Cc2ccccc2)nc2ccccc12)C(C)C |  | active: 18.4 µM
Cc1cc2c(cc1S(=O)(=O)CCC(=O)N(C)Cc1ccccc1)OCC(=O)N2 | inactive: -5.77% | 
COc1ccc(C2=NS(=O)(=O)N(C)C(C(=O)NC(C)c3ccccc3)=C2)cc1OC (stereo not given) | inactive: 12.5% | 
O=C1CCCC2=C1C1(CCCCC1)N=C(Nc1nc3ccccc3o1)N2 | inactive: -2.73% | 
COc1cccc(CNC(=O)CCCn2nc(C)c3c(C)n(-c4ccc(C)cc4)nc3c2=O)c1OC | inactive: 0.742% | 
Cc1ccc(-n2c(-c3ccco3)nc3c(cnn3-c3ccccc3C)c2=O)cc1 | inactive: -24.8% | 
COc1ccc(N2CCN(C(=O)c3ccc4c(Cl)c5c(nc4c3)CCCC5)CC2)cc1 | inactive: -25.1% | 
Cc1ccc(-c2csc(NC(=O)c3ccc4c(=O)n5c(nc4c3)CCCCC5)n2)cc1 |  | active: 5.17 µM
COC(=O)C1=C(C(=O)OC)[C@]2([C@@H]3CCCCN[C@@H](Cc4ccccc4)C(=O)N3Cc3ccccc3)C=C[C@H]1O2 | inactive: -22.6% | 
C=C1C(=O)O[C@@]23[C@H]1CC[C@@H](C)[C@@H]2CC[C@@]1(C)O[C@@H]31 |  | active: 14.6 µM
CC(C)c1ccc(NC(=O)CN2C(=O)COc3ccc(S(=O)(=O)N4CCOCC4)cc32)cc1 | inactive: 0.309% | 
COc1ccc(NC(=O)C2CCCN(S(=O)(=O)c3c(C)[nH]c(=O)[nH]c3=O)C2)cc1Cl (stereo not given) | inactive: 2.25% | 
COc1ccc(C(=O)Nc2nnc(S(=O)(=O)N3CCC(C)CC3)s2)cc1OC | inactive: -9.91% | 
O=C(Nc1nnc(S(=O)(=O)N2CCCC2)s1)c1ccccc1F | inactive: 3.71% | 
COc1ccc(-c2cc(C(=O)N3CCN(c4ccc(F)cc4)CC3)no2)cc1OC | inactive: -26.4% | 
COc1cccc(CNC(=O)CCCn2nc(C)n3c(cc4sccc43)c2=O)c1 | inactive: -14.6% | 
Cc1ccc(CNC(=O)c2cn(C)c3ccc(S(=O)(=O)N4CCOCC4)cc3c2=O)cc1 | inactive: 16.6% | 
COc1cc2c(cc1OC)CN(C(=O)CCCOc1ccc(Cl)cc1Cl)CC2 |  | active: 18.4 µM
O=C(CCCN1C(=O)/C(=C\c2cccs2)SC1=S)Nc1ccc(O)cc1 | inactive: -12.6% | 

Compound | activity change, negative = inhibition | Potency
C[C@]12C=CC(=O)C=C1CC[C@@H]1C2C(O)C[C@@]2(C)C1CC[C@]2(O)C(=O)COC(=O)CCC(=O)NC(CC(=O)O)C(=O)O (stereo not given in full) |  | active: 0.103 µM
CCOc1ccc(CNC(=O)C2CCN(c3nn4c(=O)cc(C)nc4s3)CC2)cc1 | inactive: 2.12% | 
COc1ccc(CNC(=O)C2CCCN(S(=O)(=O)c3cccc4nsnc34)C2)cc1 (stereo not given) | inactive: -24.5% | 
CCOc1ccc(-c2nonc2NC(=O)c2ccco2)cc1 | inactive: 0.982% | 
CC(=O)c1ccc(N2CCN(C(=O)CCCc3nc4ccccc4s3)CC2)cc1 |  | active: 14.6 µM
C=C1CCN(C(C)C(=O)O)S(=O)(=O)c2ccccc21 (stereo not given) | inactive: 0.882% | 
COc1ccc(C2CC(c3cccs3)=NN2C(=O)CSC2=NCCS2)cc1 (stereo not given) |  | active: 18.4 µM
CCCCN(C(=O)CCn1c(=O)oc2ccccc21)c1ccccc1 | inactive: -18% | 
CCCSc1ccc([C@@H]2[C@@H]3C(=O)N(CC)C(=O)[C@@H]3[C@]3(C(=O)OC)CCCCN23)cc1 | inactive: -24.4% | 
CC(C)[C@H](NC(=O)c1ccccc1F)C(=O)Nc1ccc2c(c1)OCO2 | inactive: -14.8% | 
C[C@H]1CCC[C@]2(O[C@H](CCO)C[C@@H](O)[C@@H]2O)O1 | inactive: -12.8% | 
COc1ccc(CN2CCN(S(=O)(=O)c3ccccc3)CC2)c(OC)c1 | inactive: 15.2% | 
Cc1ccc(-c2c(C)n3c4c(=O)n(C)c(=O)n(C)c4nc3n2CCCO)cc1 |  | active: 18.4 µM
Oc1ccc(C[C@@H]2CNCCN2CC2(c3ccccc3)CC2)cc1 | inactive: 1.39% | 
O=C1C2C(c3ccccc3)CC=CC2[C@H](c2ccc3ccccc3c2)N1Cc1ccccc1 (stereo not given in full) | inactive: -10.2% | 
Clc1ccccc1CN1CCN(/N=C/C=C/c2ccco2)CC1 | inactive: 13.1% | 
O=C(COc1ccccc1)Nc1c(Cl)ccc2nsnc12 | inactive: -4.77% | 
Cc1ccc(/C=C2\C(=O)ON=C2c2ccccc2)o1 | inactive: -4.34% | 
CC(=O)n1cc([C@H]2C=C(C(=O)N3CCN(Cc4ccccc4)CC3)O[C@@H](OCc3ccc(CO)cc3)C2)c2ccccc21 | inactive: -23.3% | 
CC(=O)Nc1ccc(SCC(CC(C)C)N2CCN(CCc3ccccc3)CCC2=O)cc1 (stereo not given) | inactive: -10.7% | 
COc1cccc(-c2cc(C(=O)N3CCN(c4ccccc4OC)CC3)no2)c1 | inactive: 14.3% | 
